Results: the RNAGym collection of RNA variant scans (doi:10.7554/elife.90254)
The source gives no read counts; variants with many changes may rest on few reads.

B1: LINE1-full (parent)
chain: UACGUAGGUGGUUUUCCCCUGAUAGUGCUAAGGGGGCCUGGAAGUUUGGACUGGGCAGAGCUCAACACAGCGUGGCAAAGUGGCUGUGGCUAGACUGCCUCUCUGGAUUCCUCGUCACUCAGCAGGGCAUCUCUGAGAGAAAUGCC

Variants of: B1
Test: self-cleavage, relative activity (ratio to wild type); higher = more cleavage; in vitro, sequencing; the parent is a self-cleaving ribozyme

Row | Variant | self-cleavage
1 | UACGUAGGUGGUCUUCCCCUGAUAGUGCUAAGGGGGCCUGGAAGUUUGGACUGGGCAGAGCUCAACACAGCGUGGCAAAGUGGCUGAGGCUAGACUGCCUCUCUGGAUUCCUCGUCUCUCAGCAGGGCAUCUCUGAGAGAAAUGCC | 0.12
2 | UACGUAGGUGGUCUUCCCCUGAUAGUGCUAAGGGGGCCUGGAAGUUUGGACUGGGCAGAGCUCAACACAGCGUGGCAAAGUGGCUGUGGCUAGACUGCCUCUCAGGAUUCCUCGUCACACAGCAGGGCAUCUCUGAGAGAAAUGCC | 1.15
3 | UACGUAGGUGGUUUUCCCCUGAUAGUGCUAAGGGGGCCUGGGAGUUUGGACUGGGCAGAGCCCAACACAGCGUGGCAAAGUGGCUGUGGCUAGACUGCCUCUCUGGACUCCUCGUCACUCAGCAGGGCAUCUCUGAGAGAAAUGCC | 0.08
4 | UACGUAGGUGGUUUUCCCCUGAUAGUGCUAAAGGGGCCUGGAAGUUUGGACUGGGCAGGGCUCAACACAGCGUGGCAAAGUGGCUGUGGCUAGACUGCCUCACUGGAUUCCUCGUCACUCAGCAGGGCAUCUCAGAGAGAAAUGCC | 0.02
5 | UACGUAGGUGGUUUUCCCCUGAUAGUGCUAAGAGGGCCUGGAAGCUUGGACUGGGCAGAGCUCAACACAGCGUGGUAAAGUGGCUGCGGCUAGACCGCCUCCCUGGAUUCCUCGUCACUCAGCAGGGCAUCUCUGAGAGAAAUGCC | 0.07
6 | UACGUAGGUGGUUUUCCCCUGAUAGUGCUAAGGGGGCCUGGAAGCUUGGACUGGGCAGAGCUCAGCACAGCGUGGCAAAGUGGCUGAGGCUAGACUGCCUCCCUGGAUUCCUCGUCACUCAGCAGGGCAUCUCUGAGAGAAAUGCC | 0.16
7 | AACGUAGGUGGUUUUCCCCUGAUAGUGCUAAGGGGGCCUGGAAGCUUGGACUGGGCAGAGCUCAACACAGCGUGGCAAAGUGGCUGUGGCUAGACUGCCUCUCUGGAUUCCUCGUCACUCUGCAGGGCAUCUCUGAGAGAAAAGCC | 1.53
8 | UACGUAGGUGGUUCUCCCCUGAUAGAGCUAAGGGGGCCUGGAAGUUUGGACUGGGCAGAGCUCAACACAGCGUGGCAAAGUGGCUGUGGCUAGACUGCCUCUCUGGAUUCCUCGUCACUCGGCAGGGCAUCUCUGAGAGAAAUGCC | 0.74
9 | UACGUAGGCGGUUUUCCCCUGAUAGUGCUAAGGGGGCCUGGAAGUUUGGACAGGGCGGAGCUCAACACAGCGUGGCAAAGUGGCUGUGGCUAGACUGCCACUCUGGAUCCCUCGUCACUCAGCAGGGCAUCUCUGAGAGAAAUGCC | 0.3
10 | AACGUAGGUGGUUUUCCCCUGAUAGUGCUAAGGGGGCCUGGAAGUUUGGACAGGCCAGAGCUCAACACAGCGUGGCAAAGUGGCUGUGGCCAGACUGCCUCUCUGGAUUCCUCGUCACUCAGCAGGGCAUCUCUGAGAGAAAUGCC | 0.23
11 | UACGUAGGUGGUCUUCCCCUGAUAGUGCUAAGGGGGCCUGGAAGUUUGGACUGGGCGGAGCUCAACACAGCGUGGCAAAGUGGCUGUGGCUAGACUGCCUCUCUGGAUUCCUCGUCACUCAGCAGGGCAUCUCUGAGAGGAAUGCC | 0.82
12 | UACGUAGGUGGUUUUCCCCUGAUAGUGCUAAGGGGGCCUGGAAGUCUGGACAGGGCAGAGCUCAACACAGCGUGGCAAAGUGGCUGUGGCUAGACUGCCUCUCUGGAUUCCUAGUCACUCAGCAGGGCAUCUCUGAGAGAAAUGCC | 1.5
13 | UACGUAGGUGGUUUUCCCCCGAUAGAGCUAAGGGGGCCUGGAAGCUAGGACUGGGCAGAGCUCUACACAGCGUGGCAAAGUGGCUGUGGCUAGACUGCCUCUCUGGAUUCCUCGUCACUCAGCAGGGCAUCUCUGGGAGAAAUGCC | 0.35
14 | UACGUAGGUGGUUUUCCCCUGAUAUUGCUAAGGGUGCCUGGAAGUUUGGACUGGGCAGAGCUCAACACAGCGUGGCAAGGUGGCUGUGGCUAGACUGCCUCUCUGGAUUCCUCGUCACUCAGCAGGGCAUCUCUGAGAGAAAUGCC | 1.03
15 | UACGUAGGUGGUUUUCCCCUGAUAGUGCUAAGGGGGCCAGGAAGUUUGAACUGGGCAGAGCUCAACACAGCGCGGCAAAGUGGCUGUGGCUAGACUGCCUCUCUGGAUUCCUCGUCACUCAGCAGGGCAUCUCUGAGAGAAAUGCC | 2.36
16 | UACGUGGGUGGUUUUCCCCUGAUAGUGCUAAGGGGGCCUGGAAGUUUGGACUUGGCAGAGCUCAACACAGCGUGGCUAAGUGGCUGUGGCUAGACUGCCUCUCUGGAUUCCUCGUCACUCAGCAGGGCAUCUCUGAGAGAAAUGCC | 0.91
17 | UACGUAGGUGGUUUUCCCCUGAUAGUGCUAAGGGGGCCUGGGAGUUUGGACAGGGCAGAGCUCAACACAGCGUGGCAAAGUGGCGGUGGCUAGACUGCCUCUCUGGAUUCCUCGUCACUCAGCAGGGCAUCUCUGAGAGAAAUGCC | 0.33
18 | UACGUAGGUGGUUUUCCCCUGAUAGUGCUAAGGGGGCCUGGAAGUUAGGACUGGGCAGAGCUCAUCACAGCGUGGCAAAGUGGCUGUGGCUAGACUGCCUCUCUGGAUUCCUCGUCACUCAGCAGGGCAUCUCUGAGAGAAACGCC | 0
19 | UACGUAGGCGGUUUUCCCCUGAUAGUGCUAAGGGGGCCUGGAAGCUUGGACUGGGCAGAGCUCAACACAGCGUGGCGAGGUGGCUGUGGCUAGACUGCCUCUCUGGAUUCCUCGUCACUCAGCAGGGCAUCUCUGAGAGAAAUGCC | 0
20 | UACGUAGGUGGUUUUCCCCUGAUAGUGCUAAGGGGGCCUGGAAGCUUGGACUGGGCAGAGCUCAACACAGCGUGGCAUGGUGGCUGUGGCUAGACUGCCUCUCUGGAUUCCUCGUCACUCAGCAGGGCAUCUCUGAGAGAAAUGCC | 0.63

Row | Variant | self-cleavage
21 | UACGUAGGUGGUUUUCCCCUGAUAGUGCUAAGGGGGCCUGGAAGUUUGGACUGGGCGGAGCUCAACACAGCGUGGCAAAGUGGCUGUGGCUAGACUGCCUCUCUGGAUUCCCCGUCACUCAGCAGGGCAUCUCUGAGAGGAAUGCC | 0.26
22 | UACGUAGGUGGUUUUCCCCUGACAGUGCUAAGGGGGCCUGGAAGUUUGGACUGGGCAGAGCUCAACACAGCGUGGCAAAGUGGCUGUGGCUAGACUGCCUCUCUGGAUUCCUCGCCACUCAGCAGGGCACCUCUGAGAGAAAUGCC | 0
23 | UACGUAGGUGGUUUUCCCCUGAUAGUGCUAAGGGGACCUGGAAGUUUGGACCGGGCAGAGCUCAACACAGCGUGGCAAAGUGGCUGUGGCUAGACUGCCUCUCAGGAUUCCUCGUCACUCAGCAGGGCAUCUCUGAGAGAAAUGCC | 1.08
24 | UACGUAGGUGGCUUCCCCCUGAUAGUGCUAAGGGGGCCUGGAUGCUUGGACUGGGCAGAGCUCAACACAGCGUGGCAAAGUGGCUGUGGCUUGACUGCCUCUCUGGAUUCCUCGUCACUCAGCAGGGCAUCUCUGAGAGAAAUGCC | 0.66
25 | UACGUAGGUGGUUUUCCCCUGAUAGUGCUAAGGGGGCCUGGAAGUUUGGACUGGGCAGAGCUCAACACAGCGUGGCAAAGUGGCUGUGGCUAGGCUGCCUCUCUGGAUUCCUCGUCACUCAGCAGUGCCUCUCUGAGAGAAAUGCC | 0.46
26 | UACGUAGGUGGUUUUCCCCUGAUAGUGCUAAGGGGGCCUGGAAGUUUGGACUGGGCAGAGCUCAACACAGCGUGGCAAAGUGGCUGUGGCUAGACUGCCUCUCUGGAUUCCUCGACACUCAGCAGGGCAUCUCCAAGAGAAAUGCC | 2.12
27 | UACGUAGGUGGAUUUCCCCUGAUAGUGCCAAGGGGGCCUGGAAGUUUGGACUGGGCAGAGCUCAACACAGCGUGGCGAAGUGGCUGUGGCUAGACUGCCUCUCUGGAUUCCUCGUCACUCAGCAGGGCAUCUCUGAGAGAAAUGCC | 2.18
28 | UACGUAGGUGGUUUUCCCCUGAUAGUGCUAAGGGGGCCUGGAGGUUUGGACUGGGCAGAUCUCAACACUGCGUGGCAGAGUGGCUGUGGCUAGACUGCCUCUCAGGAUUCCUCGUCACUCAGCAGGGCAUCUCUGAGAGAAGUGCC | 0
29 | UACGUAGGUGGUUCUCCCCUGAUGGUGCUAAGGGGGCCUGGAAGUUUGGACUGGGCAGAGCUCAACCCAGCGUGGCAAAGUGGCUGUGGUUAGACUGCCUCUCUGGAUUCCUCGUCACUCAGCAGGGCAUCUCUGAGAGAAAUGCC | 0
30 | UACGUAGGUGGUUUUCCCCCGAUAGUGCUAAGGGGGCCUGGAAGUUCGGACUGGGCAGAGCUCAACACAGCGUGGCGAAGUGGCUGUGGCUAGACUGCCUCUCUGGAUUCCUCGUCACUCAGCAGGGCAUCUCUGAGAGAAAUGCC | 1.06
31 | UACGUAGGUGGUUUUCCCCUGAUAGUGCUAAGGGGGCCUGGAAGUUUGGACUGGGCAGAGCUCAACACAGCGUGGCAAAGUGGCUGUGGCUAGACUGCCUCUCUGGAUUCCUCGUCACUCAGCAGGACAUCCCUGAGAGAAAGGCC | 0.38
32 | UGCGUAGGUGGUUUUCCCCUGAUAGUGCUAAGGGGGCCUGGGAGUUUGGACUGGGCAGAGCUCAACACAGCGUGGCAAAGUGGCUGUGGCUAGUCUGCCUCUCUGGAUUCCUCGUCACUCAGCAGGGCAUCUCCGAGAGAAAUGCC | 0.48
33 | AACGUAGGUGGUUUUCCCCUGAUAGUGCUAAGGGGGCCUGGAAGUUUGGACUGGGCAGAGCUCAACACAGCGCGGCAAAGUGGCUGGGGCUAGACUGCCUCUCUGGAUUCCUCGUCACUCAGCAGGGCAUCUCUGAGAGAAAUGCC | 0.66
34 | UACGUAGGUGGUAUUCCCCUGAUAGUGUUAAGGGGGCCUGGAAGUUCGGACUGGGCAGAGCUCAACACAGCGUGGCAAAGUGGCUGUGGCUAGACUGCCUCUCUGGAUUCCUCGUCACUCAGCAGGGCAUCUCUGAGAGAAAUGCC | 0.67
35 | UACGUAGGUGGUUUUCCCCUGAUAGUGCUAAGGGAGCCUGGAAGUUUGGACUGGGCAGAGCUCAACACAGCGUGGCAAAGUGGCAGUGGCUAGACUGCCUCCCUGGAUUCCUCGUCACUCAGCAGGGCAUCUCUGAGAGAAAUGCC | 0.1
36 | UACGUAGGUGUUUUUCCCCUGAUAGUGCUAAGGGGGCCUGGAAGUUUGGACUGGGCAGAGCUCAACACAGCAUGGCAGAGUGGCUGUGGCUAGACUGCCUCUCUGGAUUCCUCGUCACUCAGCAGGGCAUCUCUGAGAGAAAUGCC | 1.27
37 | UACGUAGGUGGUCCCCCCCUGAUUGUGCUAAGGGGGCCUGGAAGUUUGGACUGGGCAGAGCUCAACACAGCGUGGCAAAGUGGCUGUGACUAGACUGCCUCUCUGGAUUCCUCGUCACUCAGCAGGGCAUCUCUGAGAGAAAUGCC | 0
38 | UACGUAGGUGGUUUUCCCCUGGUAGUGCUAAGGGGGCCUGGAAGUUUGGACUGGGCAGAGCUCAACACAGCGUGGCAAAGUGGCUGCGGCUAGACUGCCUCUCUGGAUUCCUCGUCACUCAGCAGGGCAUCUCUGGGAGAAAUGCC | 0.29
39 | UACGUAGGUGGAUUUCCCCUGACAGUGCUAAGGGGGCCUGGAAGUUUGGACUGGGUAGAGCCCAACACAGCGUGGCAAAGUGGCUGUGGCUAUACUGCCUCUCUGGAUUCCUCGUCACUCAGCAGGGCAUCUCUGAGAGAAAUGCC | 0.04
